# Measurements published in PubChem BioAssay AID588591 (National Center for Advancing Translational Sciences (NCATS), 2011).
# Out of some 390,000 compounds screened, about 4,700 (1.2%) were called active. This list was built around the results that the source calls inconclusive (neither active nor inactive); the mix of calls is not that of the screen. The call rests on the fitted dose curve; in most records, active means well fitted inhibition curve with a large enough effect; inconclusive means small, poorly fitted or top-dose-only effect, or another doubt; inactive means no such curve, though single readings can be large or run the other way. Potencies of inconclusive entries are doubtful fits and often do not repeat.
# Target: DNA polymerase eta (Homo sapiens) (UniProt Q9Y253)
# UniProt Q9Y253, sequence (Q9Y253 whole entry, looked up): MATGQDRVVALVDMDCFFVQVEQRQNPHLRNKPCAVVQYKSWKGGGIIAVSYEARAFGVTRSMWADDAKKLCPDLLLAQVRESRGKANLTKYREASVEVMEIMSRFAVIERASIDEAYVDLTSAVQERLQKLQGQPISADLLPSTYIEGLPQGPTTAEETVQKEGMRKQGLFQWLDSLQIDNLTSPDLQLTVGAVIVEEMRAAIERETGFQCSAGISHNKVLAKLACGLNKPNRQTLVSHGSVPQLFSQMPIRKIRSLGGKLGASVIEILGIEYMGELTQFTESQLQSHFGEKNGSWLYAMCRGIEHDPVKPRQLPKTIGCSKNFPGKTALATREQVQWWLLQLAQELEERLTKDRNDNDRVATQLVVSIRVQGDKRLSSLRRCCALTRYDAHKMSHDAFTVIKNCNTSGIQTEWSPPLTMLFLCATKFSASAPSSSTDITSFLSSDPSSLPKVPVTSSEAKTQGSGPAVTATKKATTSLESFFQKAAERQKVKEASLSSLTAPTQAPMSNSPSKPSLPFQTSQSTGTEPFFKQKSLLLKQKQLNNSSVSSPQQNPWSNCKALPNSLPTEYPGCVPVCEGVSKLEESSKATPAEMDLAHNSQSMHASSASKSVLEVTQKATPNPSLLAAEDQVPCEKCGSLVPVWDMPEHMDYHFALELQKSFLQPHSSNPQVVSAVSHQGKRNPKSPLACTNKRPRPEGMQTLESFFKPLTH
# Test: qHTS for Inhibitors of Polymerase Eta
# Settings: recombinant Pol eta, fluorescent DNA replication assay; series mostly up to 114 µM
# Description: The Y-family of DNA polymerases, such as Pol eta, are specifically involved in DNA repair. Pol eta copies undamaged DNA with a lower fidelity than other DNA-directed polymerases. However, it accurately replicates UV-damaged DNA; when thymine dimers are present, this polymerase inserts the complementary nucleotides in the newly synthesized DNA, thereby bypassing the lesion and suppressing the mutagenic effect of UV-induced DNA damage. […] Thus, while pol eta's (and most likely iota's) normal function is to protect humans against the deleterious consequences of DNA damage, under certain conditions they can have deleterious effects on human health. As a consequence, we propose to utilize a high throughput replication assay to identify small molecule inhibitors of pol eta. […]
# Three microliters of reagents (buffer in column 3 and 4 as negative control and 10 nM Pol eta in columns 1, 2, and 5-48) were dispensed into a 1,536-well black solid-bottomed plate. […] The plates were then incubated for 15 min at room temperature, and 1 µL substrate (50 nM final concentration) was added to start the reaction and kinetically read twice at 0 min and 10 min on the Viewlux reader
# Potency means the concentration at half of the fitted maximal effect; tags describe the fitted curve by direction and shape.
row,SMILES,Potency
1,O=C(CSc1ncnc2sccc12)N1CCN(C(=O)c2cccs2)CC1,"inconclusive: 28.2 µM [inhibitor, single point]"
